Results are given in words; binding and its absence hold for the method and conditions named. Some entries that bind do so weakly or less than the wild type.
How the values were obtained:
Test in all cases: tandem affinity co-purification (anti-Flag resin, then Strep-Tactin resin) with SDS-PAGE; three subunits co-expressed in Expi293F; complex purified by 3×Flag on Vtc3 and 2×Strep on Vtc4; no InsP6 added, 0.02% DDM
[1] = target: T1, Vtc3_(K126A/K129A/K133A) (Baker's yeast) (UniProt Q02725)
T1 sequence: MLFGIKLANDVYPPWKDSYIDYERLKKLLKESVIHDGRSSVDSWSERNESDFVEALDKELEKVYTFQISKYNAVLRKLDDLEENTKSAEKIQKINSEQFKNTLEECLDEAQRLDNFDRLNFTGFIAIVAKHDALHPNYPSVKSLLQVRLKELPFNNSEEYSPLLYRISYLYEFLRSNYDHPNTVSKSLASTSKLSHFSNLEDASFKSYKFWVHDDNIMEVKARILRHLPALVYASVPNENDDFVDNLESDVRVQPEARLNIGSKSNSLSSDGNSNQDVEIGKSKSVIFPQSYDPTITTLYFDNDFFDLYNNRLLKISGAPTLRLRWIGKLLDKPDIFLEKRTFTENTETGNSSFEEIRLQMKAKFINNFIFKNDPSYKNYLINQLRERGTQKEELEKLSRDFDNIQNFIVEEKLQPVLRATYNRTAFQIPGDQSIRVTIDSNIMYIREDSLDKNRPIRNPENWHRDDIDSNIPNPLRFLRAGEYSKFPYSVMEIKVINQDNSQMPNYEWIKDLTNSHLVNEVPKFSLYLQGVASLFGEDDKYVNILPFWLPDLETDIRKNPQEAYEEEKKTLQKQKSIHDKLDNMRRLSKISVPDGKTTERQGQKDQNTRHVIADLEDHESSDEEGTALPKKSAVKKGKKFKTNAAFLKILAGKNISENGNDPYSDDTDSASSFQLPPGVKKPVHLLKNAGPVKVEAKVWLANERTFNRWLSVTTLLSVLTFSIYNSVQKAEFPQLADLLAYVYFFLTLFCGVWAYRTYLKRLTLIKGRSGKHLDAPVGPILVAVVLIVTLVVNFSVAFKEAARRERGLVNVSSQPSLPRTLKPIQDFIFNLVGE

Amino acid sequences for entries named in this document (tags omitted). Residues count along the entry.
UniProt P47075, residues 2-721: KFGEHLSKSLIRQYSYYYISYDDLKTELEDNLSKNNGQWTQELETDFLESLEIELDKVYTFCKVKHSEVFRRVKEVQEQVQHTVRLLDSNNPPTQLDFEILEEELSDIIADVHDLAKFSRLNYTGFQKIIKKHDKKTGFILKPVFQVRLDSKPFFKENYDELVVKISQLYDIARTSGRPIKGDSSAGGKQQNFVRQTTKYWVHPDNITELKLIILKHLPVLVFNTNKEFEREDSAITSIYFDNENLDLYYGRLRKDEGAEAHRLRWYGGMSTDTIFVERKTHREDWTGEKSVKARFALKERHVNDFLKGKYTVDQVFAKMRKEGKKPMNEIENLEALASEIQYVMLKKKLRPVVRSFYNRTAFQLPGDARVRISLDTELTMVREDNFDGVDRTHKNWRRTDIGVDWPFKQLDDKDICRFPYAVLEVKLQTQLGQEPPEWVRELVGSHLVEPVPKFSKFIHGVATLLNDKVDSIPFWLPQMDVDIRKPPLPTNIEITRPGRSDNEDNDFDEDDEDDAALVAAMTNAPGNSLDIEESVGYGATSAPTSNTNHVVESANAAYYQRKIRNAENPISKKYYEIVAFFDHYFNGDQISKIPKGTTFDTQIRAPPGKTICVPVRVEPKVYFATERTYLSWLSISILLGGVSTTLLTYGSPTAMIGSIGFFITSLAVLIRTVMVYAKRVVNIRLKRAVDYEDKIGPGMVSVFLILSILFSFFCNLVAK

[2] = target: T2, Vtc3_(Y22F/K26A/K130A) (Baker's yeast) (UniProt Q02725)
T2 sequence: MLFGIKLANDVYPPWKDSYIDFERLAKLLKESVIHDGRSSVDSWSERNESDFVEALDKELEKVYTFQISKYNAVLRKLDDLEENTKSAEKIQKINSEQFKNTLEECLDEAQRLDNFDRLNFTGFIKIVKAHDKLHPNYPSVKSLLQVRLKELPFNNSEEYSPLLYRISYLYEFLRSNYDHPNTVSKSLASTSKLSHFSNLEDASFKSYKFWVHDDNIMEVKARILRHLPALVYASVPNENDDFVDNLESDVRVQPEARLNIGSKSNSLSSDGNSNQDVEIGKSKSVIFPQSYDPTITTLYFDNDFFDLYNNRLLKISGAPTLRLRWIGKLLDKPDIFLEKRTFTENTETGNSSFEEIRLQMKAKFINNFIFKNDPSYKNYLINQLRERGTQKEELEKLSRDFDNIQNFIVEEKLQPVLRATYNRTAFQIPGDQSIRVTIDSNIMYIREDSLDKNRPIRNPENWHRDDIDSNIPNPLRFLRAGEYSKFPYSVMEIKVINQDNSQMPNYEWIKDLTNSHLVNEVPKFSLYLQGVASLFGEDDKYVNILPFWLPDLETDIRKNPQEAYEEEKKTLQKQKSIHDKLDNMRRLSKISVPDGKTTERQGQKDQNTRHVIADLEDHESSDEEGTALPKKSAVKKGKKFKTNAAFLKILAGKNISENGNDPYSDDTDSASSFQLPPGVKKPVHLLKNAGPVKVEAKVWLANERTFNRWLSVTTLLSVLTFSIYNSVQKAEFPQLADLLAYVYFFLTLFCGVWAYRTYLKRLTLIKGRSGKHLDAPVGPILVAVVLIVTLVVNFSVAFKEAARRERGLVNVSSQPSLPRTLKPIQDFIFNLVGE

[3] = target: T3, Vtc3_(K694A/K698A/R705A/R709A) (Baker's yeast) (UniProt Q02725)
T3 sequence: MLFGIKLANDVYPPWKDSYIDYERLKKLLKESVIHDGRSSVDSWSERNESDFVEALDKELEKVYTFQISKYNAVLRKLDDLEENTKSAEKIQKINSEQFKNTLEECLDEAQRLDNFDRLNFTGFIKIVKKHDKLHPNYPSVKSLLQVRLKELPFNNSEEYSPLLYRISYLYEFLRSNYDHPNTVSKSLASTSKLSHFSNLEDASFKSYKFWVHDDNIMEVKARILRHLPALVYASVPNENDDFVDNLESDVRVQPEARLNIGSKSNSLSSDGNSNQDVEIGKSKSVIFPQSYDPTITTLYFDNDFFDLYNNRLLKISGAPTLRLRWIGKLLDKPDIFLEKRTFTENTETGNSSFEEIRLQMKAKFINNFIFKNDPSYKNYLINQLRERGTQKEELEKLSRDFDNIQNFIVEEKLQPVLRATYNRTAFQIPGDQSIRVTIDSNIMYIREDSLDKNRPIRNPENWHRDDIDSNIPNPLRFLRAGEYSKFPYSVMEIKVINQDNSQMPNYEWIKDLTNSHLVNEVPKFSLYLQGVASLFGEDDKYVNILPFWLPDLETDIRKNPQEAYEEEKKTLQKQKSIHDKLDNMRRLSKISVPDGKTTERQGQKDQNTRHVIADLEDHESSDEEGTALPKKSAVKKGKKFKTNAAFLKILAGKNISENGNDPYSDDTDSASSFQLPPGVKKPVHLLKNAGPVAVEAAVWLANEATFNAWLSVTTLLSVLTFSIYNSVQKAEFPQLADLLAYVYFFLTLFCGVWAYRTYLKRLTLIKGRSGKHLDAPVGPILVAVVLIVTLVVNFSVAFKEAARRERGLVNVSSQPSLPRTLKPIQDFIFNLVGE

Measured: binding

Vtc4 (from UniProt P47075 2-721)
binds: [1] | [2] | [3]

B1: Vtc1 (natural protein, Baker's yeast)
chain: SSAPLLQRTPGKKIALPTRVEPKVFFANERTFLSWLNFTVMLGGLGVGLLNFGDKIGRVSAGLFTFVAMGTMIYALVTYHWRAAAIRRRGSGPYDDRLGPTLLCFFLLVAVIINFILRLKYNDANTKL
notes: Vtc1, yeast, UniProt P40046; codon-optimized DNA in the pMlink vector; Three copies of Vtc1 stand in the Vtc1/Vtc3/Vtc4 complex (3:1:1); also called Vtc1A; Vtc1B; source: Expi293F cells, transiently cotransfected with the Vtc3 and Vtc4 plasmids; purified as part of the VTC complex (anti-Flag resin, Strep-Tactin resin; SEC for the cryo-EM sample)
binds: [1] | [2] | [3]

Reference: paper PMC9911596 (Nature Communications, 2023)
